Measurements reported in the supplement of paper PMC8728848.
Some of the results follow.

Key:
Test in all cases: glycan array binding signal (z-score within array); higher = stronger binding
Conditions in all cases: glycan notation: IUPAC condensed, linker removed
[1] = biological target: Gal(b1-3)GlcNAc(b1-3)Gal(b1-4)GlcNAc(b1-2)[Gal(b1-3)GlcNAc(b1-3)Gal(b1-4)GlcNAc(b1-6)]Man(a1-6)[Gal(b1-3)GlcNAc(b1-3)Gal(b1-4)GlcNAc(b1-2)Man(a1-3)]Man(b1-4)GlcNAc(b1-4)[Fuc(a1-6)]GlcNAc
How it was run: (§1)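 Arrays were curated from the Consortium for Functional Glycomics database, 3228 in total, and kept only where the protein sequence was available. Binding is expressed as a within-array Z-score. This score was averaged across arrays of the same protein sequence at different concentrations or buffers and across linkers, and negative values can be read as non-binding.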

[2] = biological target: Gal(b1-3)GlcNAc(b1-3)Gal(b1-4)GlcNAc(b1-3)Gal(b1-4)GlcNAc(b1-2)[Gal(b1-3)GlcNAc(b1-3)Gal(b1-4)GlcNAc(b1-3)Gal(b1-4)GlcNAc(b1-6)]Man(a1-6)[Gal(b1-3)GlcNAc(b1-3)Gal(b1-4)GlcNAc(b1-3)Gal(b1-4)GlcNAc(b1-2)Man(a1-3)]Man(b1-4)GlcNAc(b1-4)[Fuc(a1-6)]GlcNAc
How it was run: as §1

[3] = biological target: Gal(b1-3)GlcNAc(b1-3)Gal(b1-4)GlcNAc(b1-6)[Gal(b1-3)GlcNAc(b1-3)]Gal(b1-4)Glc
How it was run: as §1

[4] = biological target: Gal(b1-3)GlcNAc(b1-3)Gal(b1-4)[Fuc(a1-3)]GlcNAc
How it was run: as §1

[5] = biological target: Gal(b1-3)GlcNAc(b1-3)Gal(b1-4)[Fuc(a1-3)]GlcNAc(b1-6)[Gal(b1-3)GlcNAc(b1-3)]Gal(b1-4)Glc
How it was run: as §1

[6] = biological target: Gal(b1-3)GlcNAc(b1-3)GalNAc
How it was run: as §1

[7] = biological target: Gal(b1-3)GlcNAc(b1-6)Gal(b1-4)GlcNAc
How it was run: as §1

[8] = biological target: Gal(b1-3)GlcNAc(b1-6)GalNAc
How it was run: as §1

[9] = biological target: Gal(b1-3)GlcNAc(b1-6)[Gal(b1-3)]GalNAc
How it was run: as §1

[10] = biological target: Gal(b1-3)GlcNAc6S
How it was run: as §1

[11] = biological target: Gal(b1-3)[Fuc(a1-4)]GlcNAc
How it was run: as §1

[12] = biological target: Gal(b1-3)[Fuc(a1-4)]GlcNAc(b1-2)Man
How it was run: as §1

[13] = biological target: Gal(b1-3)[Fuc(a1-4)]GlcNAc(b1-2)Man(a1-3)[Gal(b1-3)[Fuc(a1-4)]GlcNAc(b1-2)Man(a1-6)]Man(b1-4)GlcNAc(b1-4)[Fuc(a1-6)]GlcNAc
How it was run: as §1

[14] = biological target: Gal(b1-3)[Fuc(a1-4)]GlcNAc(b1-3)Gal(b1-3)[Fuc(a1-4)]GlcNAc
How it was run: as §1

[15] = biological target: Gal(b1-3)[Fuc(a1-4)]GlcNAc(b1-3)Gal(b1-4)[Fuc(a1-3)]GlcNAc
How it was run: as §1

[16] = biological target: Gal(b1-3)[Fuc(a1-4)]GlcNAc(b1-6)GalNAc
How it was run: as §1

[17] = biological target: Gal(b1-3)[GlcNAc(b1-6)]GalNAc
How it was run: as §1

[18] = biological target: Gal(b1-3)[Neu5Ac(a2-6)]GalNAc
How it was run: as §1

[19] = biological target: Gal(b1-3)[Neu5Ac(a2-6)]GlcNAc(b1-4)Gal(b1-4)Glc
How it was run: as §1

[20] = biological target: Gal(b1-3)[Neu5Ac(b2-6)]GalNAc
How it was run: as §1

[21] = biological target: Gal(b1-4)Gal
How it was run: as §1

[22] = biological target: Gal(b1-4)GalNAc(a1-3)[Fuc(a1-2)]Gal(b1-4)GlcNAc
How it was run: as §1

[23] = biological target: Gal(b1-4)GalNAc(b1-3)[Fuc(a1-2)]Gal(b1-4)GlcNAc
How it was run: as §1

[24] = biological target: Gal(b1-4)Glc
How it was run: as §1

[25] = biological target: Gal(b1-4)Glc6S
How it was run: as §1

[26] = biological target: Gal(b1-4)GlcNAc
How it was run: as §1

[27] = biological target: Gal(b1-4)GlcNAc(a1-6)Gal(b1-4)GlcNAc
How it was run: as §1

[28] = biological target: Gal(b1-4)GlcNAc(b1-2)Man
How it was run: as §1

[29] = biological target: Gal(b1-4)GlcNAc(b1-2)Man(a1-3)Man(b1-4)GlcNAc(b1-4)GlcNAc
How it was run: as §1

[30] = biological target: Gal(b1-4)GlcNAc(b1-2)Man(a1-3)[Gal(b1-4)GlcNAc(b1-2)Man(a1-6)]Man(b1-4)GlcNAc(b1-4)GlcNAc
How it was run: as §1

[31] = biological target: Gal(b1-4)GlcNAc(b1-2)Man(a1-3)[Gal(b1-4)GlcNAc(b1-2)Man(a1-6)]Man(b1-4)GlcNAc(b1-4)[Fuc(a1-6)]GlcNAc
How it was run: as §1

[32] = biological target: Gal(b1-4)GlcNAc(b1-2)Man(a1-3)[Gal(b1-4)GlcNAc(b1-2)Man(a1-6)][Gal(b1-4)GlcNAc(b1-4)]Man(b1-4)GlcNAc(b1-4)[Fuc(a1-6)]GlcNAc
How it was run: as §1

[33] = biological target: Gal(b1-4)GlcNAc(b1-2)Man(a1-3)[Gal(b1-4)GlcNAc(b1-2)Man(a1-6)][GlcNAc(b1-4)]Man(b1-4)GlcNAc(b1-4)[Fuc(a1-6)]GlcNAc
How it was run: as §1

[34] = biological target: Gal(b1-4)GlcNAc(b1-2)Man(a1-3)[GlcNAc(b1-2)Man(a1-6)]Man(b1-4)GlcNAc(b1-4)GlcNAc
How it was run: as §1

[35] = biological target: Gal(b1-4)GlcNAc(b1-2)Man(a1-3)[GlcNAc(b1-4)][Gal(b1-4)GlcNAc(b1-2)Man(a1-6)]Man(b1-4)GlcNAc(b1-4)GlcNAc
How it was run: as §1

[36] = biological target: Gal(b1-4)GlcNAc(b1-2)Man(a1-3)[Man(a1-6)]Man(b1-4)GlcNAc(b1-4)GlcNAc
How it was run: as §1

[37] = biological target: Gal(b1-4)GlcNAc(b1-2)Man(a1-6)Man(b1-4)GlcNAc(b1-4)GlcNAc
How it was run: as §1

[38] = biological target: Gal(b1-4)GlcNAc(b1-2)Man(a1-6)[GlcNAc(b1-2)Man(a1-3)]Man(b1-4)GlcNAc(b1-4)GlcNAc
How it was run: as §1

B1: PNGase F (Flavobacterium meningosepticum) (protein)
chain: GIPAPADNTVNIKTFDKVKNAFGDGLSQSAEGTFTFPADVTAVKTIKMFIKNECPNKTCDEWDRYANVYVKNKTTGEWYEIGRFITPYWVGTEKLPRGLEIDVTDFKSLLSGNTELKIYTETWLAKGREYSVDFDIVYGTPDYKYSAVVPVVQYNKSSIDGVPYGKAHTLALKKNIQLPTNTEKAYLRTTISGWGHAKPYDAGSRGCAEWCFRTHTIAINNSNTFQHQLGALGCSANPINNQSPGNWTPDRAGWCPGMAVPTRIDVLNNSLIGSTFSYEYKFQNWTNNGTNGDAFYAISSFVIAKSNTPISAPVVTNLDPHHHHHH
In the case of B1, the “glycan array binding signal (z-score)” value [1] is reported as 0.675, the “glycan array binding signal (z-score)” value [2] is reported as -0.113 and the “glycan array binding signal (z-score)” value [3] is reported as -0.348. The “glycan array binding signal (z-score)” value [4] was -0.213, the “glycan array binding signal (z-score)” value [5] was -0.21 and the “glycan array binding signal (z-score)” value [6] was -0.268. The “glycan array binding signal (z-score)” value [7] was -0.334, the “glycan array binding signal (z-score)” value [8] was -0.626 and the “glycan array binding signal (z-score)” value [9] was -0.098. For the same binder, the “glycan array binding signal (z-score)” value [10] was -0.196, the “glycan array binding signal (z-score)” value [11] was 0.07 and the “glycan array binding signal (z-score)” value [12] was -0.017. The “glycan array binding signal (z-score)” value [13] was 0.675, the “glycan array binding signal (z-score)” value [14] was -0.309 and the “glycan array binding signal (z-score)” value [15] was -0.321. The “glycan array binding signal (z-score)” value [16] was -0.207, the “glycan array binding signal (z-score)” value [17] was -0.166 and the “glycan array binding signal (z-score)” value [18] was -0.245. The “glycan array binding signal (z-score)” value [19] was -0.309, the “glycan array binding signal (z-score)” value [20] was -0.337 and the “glycan array binding signal (z-score)” value [21] was 0.114. For the same binder, the “glycan array binding signal (z-score)” value [22] was -0.371, the “glycan array binding signal (z-score)” value [23] was -0.37 and the “glycan array binding signal (z-score)” value [24] was 0.897. For the same binder, the “glycan array binding signal (z-score)” value [25] was 0.105, the “glycan array binding signal (z-score)” value [26] was -0.008 and the “glycan array binding signal (z-score)” value [27] was -0.18. For the same binder, the “glycan array binding signal (z-score)” value [28] was 0.088, the “glycan array binding signal (z-score)” value [29] was -0.136 and the “glycan array binding signal (z-score)” value [30] was -0.323. For the same binder, the “glycan array binding signal (z-score)” value [31] was -0.194, the “glycan array binding signal (z-score)” value [32] was -0.348 and the “glycan array binding signal (z-score)” value [33] was -0.326. The “glycan array binding signal (z-score)” value [34] was -0.321, the “glycan array binding signal (z-score)” value [35] was -0.247 and the “glycan array binding signal (z-score)” value [36] was 1.11. For the same binder, the “glycan array binding signal (z-score)” value [37] was -0.202 and the “glycan array binding signal (z-score)” value [38] was -0.208.
